Data as given in the BET-seq Pho4 binding data (Le et al. 2018).
This is one part of the list. These are noisy estimates, calculated here from bound and input reads.

Molecular target: T1, Pho4 (S. cerevisiae) (UniProt P07270)
T1 sequence: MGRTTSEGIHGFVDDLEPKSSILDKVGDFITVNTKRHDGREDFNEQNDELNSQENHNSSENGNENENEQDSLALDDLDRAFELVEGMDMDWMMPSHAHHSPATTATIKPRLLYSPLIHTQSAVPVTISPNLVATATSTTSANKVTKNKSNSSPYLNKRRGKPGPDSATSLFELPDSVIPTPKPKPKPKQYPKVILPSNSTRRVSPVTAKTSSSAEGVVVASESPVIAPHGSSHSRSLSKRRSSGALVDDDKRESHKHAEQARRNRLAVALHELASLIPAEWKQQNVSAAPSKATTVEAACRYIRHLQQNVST
Assay: relative binding free energy (BET-seq); higher = weaker binding
Conditions: reference: library average

Sequence	relative binding free energy
GAATTCACGTGTGTGG	0.92 kJ/mol
TTTGACACGTGGCGTC	-0.669 kJ/mol
TTTGGCACGTGATAAT	0.377 kJ/mol
ATATTCACGTGTGCGT	0.46 kJ/mol
GGTCGCACGTGTTGTG	0.251 kJ/mol
GAGAGCACGTGTTTCG	0.126 kJ/mol
TTTGGCACGTGCTGTT	-0.544 kJ/mol
TAGTGCACGTGGTGTG	-0.377 kJ/mol
ATGGTCACGTGGTGTT	-0.126 kJ/mol
AGTGTCACGTGTTGGC	0.209 kJ/mol
TTGTTCACGTGAACAG	1.34 kJ/mol
TAGTGCACGTGGTGAT	-0.46 kJ/mol
AAGATCACGTGTGGGA	0.628 kJ/mol
GTTGACACGTGTTTGA	0.0837 kJ/mol
AGTCTCACGTGGTTAT	0.962 kJ/mol
AGATTCACGTGTGAGT	1.26 kJ/mol
TTTATCACGTGGAGAT	0.46 kJ/mol
TTAATCACGTGGCGGT	0 kJ/mol
TAGTACACGTGGTTGC	0 kJ/mol
TTACTCACGTGATATT	1.3 kJ/mol
TCTGTCACGTGAGTGC	0.837 kJ/mol
TCTTGCACGTGGATTA	-0.0837 kJ/mol
ATTTTCACGTGAGTAG	1.59 kJ/mol
TGTGGCACGTGGGGGG	-0.669 kJ/mol
GTTTTCACGTGCATTG	1.55 kJ/mol

Sequence	relative binding free energy
TTGGTCACGTGCGATG	0.377 kJ/mol
TATTTCACGTGTAGTA	1 kJ/mol
AGTGACACGTGTTTAG	-0.0837 kJ/mol
GAGTTCACGTGGTATA	1.34 kJ/mol
TGTAGCACGTGTTCTT	-0.46 kJ/mol
TGAGTCACGTGGAGGA	0.126 kJ/mol
AAGGTCACGTGGTGCT	0.0837 kJ/mol
CAAGGCACGTGGGGTG	-1.46 kJ/mol
AGTCTCACGTGTGTGT	0.795 kJ/mol
GCAGGCACGTGTTGTT	0.126 kJ/mol
GGTTACACGTGGTGTC	0.544 kJ/mol
CGGGACACGTGAAAGG	1.46 kJ/mol
GACAACACGTGTGGGT	0.879 kJ/mol
TCGGACACGTGGATTG	0.502 kJ/mol
TGTTGCACGTGCGCTG	-0.962 kJ/mol
CTATCCACGTGGTGTT	0.0837 kJ/mol
GGGAGCACGTGTTTTC	0 kJ/mol
TCTTACACGTGGATGT	0.669 kJ/mol
GGTCTCACGTGCGGGC	1.21 kJ/mol
CGGGACACGTGTGGGT	0.586 kJ/mol
TTGTACACGTGAGATA	0.837 kJ/mol
GGAAGCACGTGTGTGG	-0.628 kJ/mol
ATAGGCACGTGGCGTG	-1.34 kJ/mol
GTCGACACGTGTTTTT	0.418 kJ/mol
TTCGGCACGTGGATGA	-0.126 kJ/mol

Sequence	relative binding free energy
AATGTCACGTGGAGGT	0.126 kJ/mol
ATAGACACGTGAAAGG	1.26 kJ/mol
AGTGGCACGTGTGAGT	-0.167 kJ/mol
GCGGGCACGTGAATGG	2.18 kJ/mol
GGGCGCACGTGTATTG	-0.628 kJ/mol
CTTGTCACGTGGGTGA	0 kJ/mol
CGAGTCACGTGATGTA	0.753 kJ/mol
GGATACACGTGGTGGT	0.293 kJ/mol
CTCGGCACGTGTTGTT	0.209 kJ/mol
TAGTACACGTGGGTTA	-0.377 kJ/mol
TGGTACACGTGCTATT	-0.251 kJ/mol
GATTGCACGTGTCGTA	0.879 kJ/mol
CAGTGCACGTGGGTAG	-1.05 kJ/mol
GTTGACACGTGTGTCA	0.167 kJ/mol
TCGTTCACGTGTTATG	0.586 kJ/mol
TAAGGCACGTGCGCGG	-1.05 kJ/mol
TTGATCACGTGTAAGT	0.544 kJ/mol
GTGTCCACGTGGGTGT	0.0418 kJ/mol
GGTCTCACGTGAGTAT	2.18 kJ/mol
ATGCACACGTGGAAGT	1.13 kJ/mol
AAGTGCACGTGGAGCT	-0.0837 kJ/mol
TGATGCACGTGTGCAA	0.293 kJ/mol
TTGTTCACGTGGAGAG	1.21 kJ/mol
AGGGCCACGTGTGCGT	-0.335 kJ/mol
AGTAGCACGTGGGTCT	-1.59 kJ/mol

Sequence	relative binding free energy
TATAACACGTGGTCTG	-0.502 kJ/mol
GCGTGCACGTGGAGTG	-0.209 kJ/mol
TCTGGCACGTGCGTAG	-0.418 kJ/mol
AGGATCACGTGGATAG	0.879 kJ/mol
TGTAACACGTGGTAGG	-0.335 kJ/mol
GGAAGCACGTGAGGAT	0.795 kJ/mol
TGTGTCACGTGGTTCG	0.418 kJ/mol
TGTGTCACGTGTTTTG	0.293 kJ/mol
GTGCTCACGTGTTGTA	1.05 kJ/mol
TGGACCACGTGGAGGG	0.0418 kJ/mol
TTCTTCACGTGGAAGT	1.21 kJ/mol
TGCGGCACGTGTTGTG	-0.418 kJ/mol
ATGAACACGTGTTTAG	-0.251 kJ/mol
ACGCTCACGTGGTGTT	1.17 kJ/mol
ATTGGCACGTGCGTTG	-1.17 kJ/mol
AGGTACACGTGGTATG	0 kJ/mol
GAGTGCACGTGTCGTG	0.126 kJ/mol
CTGATCACGTGGCGGT	0.46 kJ/mol
AAGGACACGTGGGGCC	0.0837 kJ/mol
TTTTCCACGTGTAGAT	1 kJ/mol
CATGCCACGTGGTGTA	-0.586 kJ/mol
TGTTTCACGTGCAAGG	1.21 kJ/mol
TATGCCACGTGGGCGG	-1.38 kJ/mol
GGTATCACGTGGTGGA	0.544 kJ/mol
GATAGCACGTGTGGGC	0.377 kJ/mol

Sequence	relative binding free energy
GTATACACGTGGTATA	-0.669 kJ/mol
CTTGGCACGTGGGCAT	-0.962 kJ/mol
ACGGACACGTGGGGGT	-0.46 kJ/mol
TTTTGCACGTGATTCA	0.126 kJ/mol
TTTGCCACGTGGGGGG	-0.46 kJ/mol
AAAGACACGTGATTTG	0.962 kJ/mol
TTTTTCACGTGTCGAT	1.05 kJ/mol
TGATGCACGTGGAGCG	-0.0837 kJ/mol
AAGGACACGTGGAATT	0.879 kJ/mol
ATAGGCACGTGGACAT	-0.0418 kJ/mol
GAGGGCACGTGAAGTA	0.92 kJ/mol
GTCTACACGTGGTATG	0.502 kJ/mol
TTTTTCACGTGAAGAT	1.46 kJ/mol
TGAATCACGTGGAGTG	0.418 kJ/mol
TTTGACACGTGTCGGC	0.795 kJ/mol
ATGGACACGTGGACGG	-0.293 kJ/mol
GATTTCACGTGGTGCG	1.67 kJ/mol
AGGATCACGTGAAGTT	1.72 kJ/mol
AGGGTCACGTGTTAGT	0.418 kJ/mol
GGTCTCACGTGGATTT	0.962 kJ/mol
ACTCGCACGTGTTGGT	0.126 kJ/mol
GGCGACACGTGGGTCG	-0.377 kJ/mol
AATGTCACGTGCTATT	0.544 kJ/mol
AGTGCCACGTGGCTGT	-0.502 kJ/mol
GTTTTCACGTGAATAT	0.879 kJ/mol

Sequence	relative binding free energy
GTAAGCACGTGGTTTT	-0.335 kJ/mol
CAGGTCACGTGGTCAG	0.167 kJ/mol
AGTCACACGTGGGGGC	-0.167 kJ/mol
TGACGCACGTGGCGTG	-1.26 kJ/mol
TGTGGCACGTGGGAAG	-0.586 kJ/mol
TGAGGCACGTGGTCTG	-0.962 kJ/mol
CTTTTCACGTGTATTT	0.92 kJ/mol
GTATGCACGTGTCTGA	0.209 kJ/mol
GGTATCACGTGTGGTT	0.879 kJ/mol
TGTATCACGTGTGTGG	0.753 kJ/mol
TTAGGCACGTGAAAAT	1.3 kJ/mol
ATTAGCACGTGGATGT	0.126 kJ/mol
TTGGTCACGTGAGAAC	1.92 kJ/mol
TGGGTCACGTGGCTGG	0.293 kJ/mol
AGTTTCACGTGGTTTC	0.711 kJ/mol
TGGTCCACGTGGTTCT	-0.209 kJ/mol
TTTTTCACGTGAGGTA	1.46 kJ/mol
GTGTTCACGTGTTAGG	1.46 kJ/mol
AGGGTCACGTGATTTA	1.46 kJ/mol
TTGGTCACGTGATACT	1 kJ/mol
AGTCACACGTGCGTGT	0 kJ/mol
